Binding data for 4 molecules are collected here from publication PMC7049725.

The chains behind the UniProt entries cited, without tags or fusion partners.
UniProt O60293: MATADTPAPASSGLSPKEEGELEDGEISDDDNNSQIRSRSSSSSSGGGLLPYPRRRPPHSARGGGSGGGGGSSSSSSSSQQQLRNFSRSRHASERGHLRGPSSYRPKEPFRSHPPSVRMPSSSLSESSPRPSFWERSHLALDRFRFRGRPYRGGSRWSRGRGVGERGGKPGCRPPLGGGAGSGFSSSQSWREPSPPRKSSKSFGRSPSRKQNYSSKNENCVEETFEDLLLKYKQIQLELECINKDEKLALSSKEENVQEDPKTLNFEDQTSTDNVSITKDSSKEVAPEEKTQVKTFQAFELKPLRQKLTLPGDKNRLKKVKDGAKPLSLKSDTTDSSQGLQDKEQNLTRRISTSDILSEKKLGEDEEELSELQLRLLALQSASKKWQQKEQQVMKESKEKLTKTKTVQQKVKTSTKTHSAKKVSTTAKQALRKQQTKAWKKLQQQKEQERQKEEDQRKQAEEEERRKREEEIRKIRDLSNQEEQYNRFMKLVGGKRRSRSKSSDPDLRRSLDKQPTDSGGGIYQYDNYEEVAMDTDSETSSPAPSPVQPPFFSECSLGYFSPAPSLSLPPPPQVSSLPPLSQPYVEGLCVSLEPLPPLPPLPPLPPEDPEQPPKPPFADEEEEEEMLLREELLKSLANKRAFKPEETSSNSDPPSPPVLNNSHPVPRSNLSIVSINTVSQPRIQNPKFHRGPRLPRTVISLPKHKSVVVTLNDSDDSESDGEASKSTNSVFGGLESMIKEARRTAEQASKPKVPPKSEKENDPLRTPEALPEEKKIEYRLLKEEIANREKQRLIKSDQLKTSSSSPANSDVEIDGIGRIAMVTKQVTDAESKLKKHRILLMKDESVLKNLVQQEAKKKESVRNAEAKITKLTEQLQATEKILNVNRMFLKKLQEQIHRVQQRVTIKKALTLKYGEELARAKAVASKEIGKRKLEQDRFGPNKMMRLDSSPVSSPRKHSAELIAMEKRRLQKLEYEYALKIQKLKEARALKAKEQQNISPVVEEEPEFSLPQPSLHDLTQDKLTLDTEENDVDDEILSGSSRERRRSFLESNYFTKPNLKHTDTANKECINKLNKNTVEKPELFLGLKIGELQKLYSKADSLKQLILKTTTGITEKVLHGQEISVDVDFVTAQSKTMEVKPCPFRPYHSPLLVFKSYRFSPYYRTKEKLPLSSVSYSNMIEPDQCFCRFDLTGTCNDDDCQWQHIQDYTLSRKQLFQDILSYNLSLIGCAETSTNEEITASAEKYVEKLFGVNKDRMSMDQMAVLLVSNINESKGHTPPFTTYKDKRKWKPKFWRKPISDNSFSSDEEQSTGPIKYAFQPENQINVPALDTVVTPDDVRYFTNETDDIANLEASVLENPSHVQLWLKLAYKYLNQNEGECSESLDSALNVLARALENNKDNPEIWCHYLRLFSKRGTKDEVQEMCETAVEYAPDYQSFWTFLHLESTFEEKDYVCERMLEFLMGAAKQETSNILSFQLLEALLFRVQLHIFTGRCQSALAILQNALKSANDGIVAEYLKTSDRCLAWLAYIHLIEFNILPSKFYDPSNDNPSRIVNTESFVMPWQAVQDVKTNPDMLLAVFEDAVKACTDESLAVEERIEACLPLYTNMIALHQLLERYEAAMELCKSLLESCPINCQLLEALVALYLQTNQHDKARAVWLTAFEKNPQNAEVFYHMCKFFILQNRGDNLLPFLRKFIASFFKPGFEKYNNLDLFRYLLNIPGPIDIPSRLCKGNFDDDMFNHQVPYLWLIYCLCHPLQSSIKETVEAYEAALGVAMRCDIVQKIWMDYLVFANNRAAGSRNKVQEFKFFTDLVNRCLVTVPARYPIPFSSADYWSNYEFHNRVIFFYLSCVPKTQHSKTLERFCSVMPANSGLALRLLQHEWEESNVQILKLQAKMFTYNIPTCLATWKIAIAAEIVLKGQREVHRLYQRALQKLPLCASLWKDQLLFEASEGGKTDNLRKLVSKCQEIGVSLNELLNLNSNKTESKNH

No constants are given. Whether binding was seen depends on the method and setting. In cells and extracts the contact can be indirect. Some binding calls cover weakened binding; strength is not graded here. Tags and fused reporters may be left off the sequences shown.

Experiment [1] deals with T1, ZC3H3-3xFLAG (human) (UniProt Q8IXZ2).
T1 sequence: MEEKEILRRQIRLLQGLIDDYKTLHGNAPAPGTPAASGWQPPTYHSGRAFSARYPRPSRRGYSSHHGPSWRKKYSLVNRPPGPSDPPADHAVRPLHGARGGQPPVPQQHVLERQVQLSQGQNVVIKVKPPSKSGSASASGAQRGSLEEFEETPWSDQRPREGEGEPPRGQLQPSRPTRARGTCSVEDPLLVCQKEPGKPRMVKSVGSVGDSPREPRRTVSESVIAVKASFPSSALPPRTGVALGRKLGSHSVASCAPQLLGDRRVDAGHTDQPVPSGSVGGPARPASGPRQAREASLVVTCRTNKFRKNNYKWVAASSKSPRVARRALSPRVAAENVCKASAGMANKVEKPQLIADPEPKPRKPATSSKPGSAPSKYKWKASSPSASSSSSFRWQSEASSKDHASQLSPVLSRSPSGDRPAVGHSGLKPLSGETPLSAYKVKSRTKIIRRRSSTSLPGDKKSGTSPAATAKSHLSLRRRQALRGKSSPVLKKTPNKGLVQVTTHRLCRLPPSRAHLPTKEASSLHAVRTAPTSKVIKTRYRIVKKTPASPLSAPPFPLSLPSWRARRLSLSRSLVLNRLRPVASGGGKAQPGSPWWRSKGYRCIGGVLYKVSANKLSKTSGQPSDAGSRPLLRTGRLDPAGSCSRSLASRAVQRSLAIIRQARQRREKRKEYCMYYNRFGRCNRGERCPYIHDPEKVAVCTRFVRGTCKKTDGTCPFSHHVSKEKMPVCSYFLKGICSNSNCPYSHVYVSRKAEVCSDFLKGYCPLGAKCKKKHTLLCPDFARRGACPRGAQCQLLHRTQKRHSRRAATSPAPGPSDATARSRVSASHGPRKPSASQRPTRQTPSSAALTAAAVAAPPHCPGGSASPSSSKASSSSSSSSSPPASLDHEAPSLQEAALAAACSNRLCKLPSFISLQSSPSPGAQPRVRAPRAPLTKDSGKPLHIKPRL
As to the kind of experiment: co-IP; as a1, but bead-bound material treated with 250 U Benzonase for 20 min at room temperature before elution; western blot. Background: In western blotting, separated proteins are transferred to a membrane and probed.

Experiment [2] deals with T1, ZC3H3-3xFLAG (human). The experiment is described as follows: co-IP; as a1, but bead-bound material treated with 5 U RNase T1 and 2 ug RNase A mix for 20 min at room temperature before elution; western blot.
Experiment [3] deals with T1, ZC3H3-3xFLAG (human). As to the kind of experiment: co-IP; anti-FLAG (M2) magnetic beads, HEK293 lysate (150 mM NaCl, 50 mM Tris-HCl pH 7.5, 5% glycerol, 1% IGEPAL-CA-630, 1 mM MgCl2); bead-bound material treated with BSA (1 mg/ml, control) for 20 min at room temperature before elution; western blot.
The target of experiment [4] is T1, ZC3H3-3xFLAG (human). The experiment is described as follows: condition: only after treatment of the bead-bound material with Benzonase (250 U); co-IP; as a1, but bead-bound material treated with 250 U Benzonase for 20 min at room temperature before elution; western blot.

On to ZFC3H1 (from UniProt O60293 1-1989), for which the binding result with ZC3H3-3xFLAG (human) [1], with ZC3H3-3xFLAG (human) [2] and with ZC3H3-3xFLAG (human) [3] was “binds” in each case.

B1: PABPN1 (protein, UniProt Q86U42 1-306)
chain: MAAAAAAAAAAGAAGGRGSGPGRRRHLVPGAGGEAGEGAPGGAGDYGNGLESEELEPEELLLEPEPEPEPEEEPPRPRAPPGAPGPGPGSGAPGSQEEEEEPGLVEGDPGDGAIEDPELEAIKARVREMEEEAEKLKELQNEVEKQMNMSPPPGNAGPVIMSIEEKMEADARSIYVGNVDYGATAEELEAHFHGCGSVNRVTILCDKFSGHPKGFAYIEFSDKESVRTSLALDESLFRGRQIKVIPKRTNRPGISTTDRGFPRARYRARTTNYNSSRSRFYSGFNSRPRGRVYRGRARATSWYSPY
As to B1, the figures for the binding entry with ZC3H3-3xFLAG (human) [2], with ZC3H3-3xFLAG (human) [4] and with ZC3H3-3xFLAG (human) [3] were “binds”, “no binding” and “binds”, respectively.

B2: ZCCHC8 (protein, UniProt Q6NZY4 1-707)
chain: MAAEVYFGDLELFEPFDHPEESIPKPVHTRFKDDDGDEEDENGVGDAELRERLRQCEETIEQLRAENQELKRKLNILTRPSGILVNDTKLDGPILQILFMNNAISKQYHQEIEEFVSNLVKRFEEQQKNDVEKTSFNLLPQPSSIVLEEDHKVEESCAIKNNKEAFSVVGSVLYFTNFCLDKLGQPLLNENPQLSEGWEIPKYHQVFSHIVSLEGQEIQVKAKRPKPHCFNCGSEEHQMKDCPMPRNAARISEKRKEYMDACGEANNQNFQQRYHAEEVEERFGRFKPGVISEELQDALGVTDKSLPPFIYRMRQLGYPPGWLKEAELENSGLALYDGKDGTDGETEVGEIQQNKSVTYDLSKLVNYPGFNISTPRGIPDEWRIFGSIPMQACQQKDVFANYLTSNFQAPGVKSGNKRSSSHSSPGSPKKQKNESNSAGSPADMELDSDMEVPHGSQSSESFQFQPPLPPDTPPLPRGTPPPVFTPPLPKGTPPLTPSDSPQTRTASGAVDEDALTLEELEEQQRRIWAALEQAESVNSDSDVPVDTPLTGNSVASSPCPNELDLPVPEGKTSEKQTLDEPEVPEIFTKKSEAGHASSPDSEVTSLCQKEKAELAPVNTEGALLDNGSVVPNCDISNGGSQKLFPADTSPSTATKIHSPIPDMSKFATGITPFEFENMAESTGMYLRIRSLLKNSPRNQQKNKKASE
On to B2, for which the binding entry with ZC3H3-3xFLAG (human) [3] is “no binding”.

B3: RBM7 (protein, UniProt Q9Y580 1-266)
chain: MGAAAAEADRTLFVGNLETKVTEELLFELFHQAGPVIKVKIPKDKDGKPKQFAFVNFKHEVSVPYAMNLLNGIKLYGRPIKIQFRSGSSHAPQDVSLSYPQHHVGNSSPTSTSPSRYERTMDNMTSSAQIIQRSFSSPENFQRQAVMNSALRQMSYGGKFGSSPLDQSGFSPSVQSHSHSFNQSSSSQWRQGTPSSQRKVRMNSYPYLADRHYSREQRYTDHGSDHHYRGKRDDFFYEDRNHDDWSHDYDNRRDSSRDGKWRSSRH
As for B3, the binding result in the experiment with ZC3H3-3xFLAG (human) [3] was “no binding”.
